# In the supplement of paper PMC3334620:
# In all, about 33,000 sequences were measured (“E-score (-0.5 to 0.5)”: median about -0.036, highest 2% from about 0.37 on). Some of the results follow.
# Target: T1, Yer064c (UniProt P40041)
# T1 sequence: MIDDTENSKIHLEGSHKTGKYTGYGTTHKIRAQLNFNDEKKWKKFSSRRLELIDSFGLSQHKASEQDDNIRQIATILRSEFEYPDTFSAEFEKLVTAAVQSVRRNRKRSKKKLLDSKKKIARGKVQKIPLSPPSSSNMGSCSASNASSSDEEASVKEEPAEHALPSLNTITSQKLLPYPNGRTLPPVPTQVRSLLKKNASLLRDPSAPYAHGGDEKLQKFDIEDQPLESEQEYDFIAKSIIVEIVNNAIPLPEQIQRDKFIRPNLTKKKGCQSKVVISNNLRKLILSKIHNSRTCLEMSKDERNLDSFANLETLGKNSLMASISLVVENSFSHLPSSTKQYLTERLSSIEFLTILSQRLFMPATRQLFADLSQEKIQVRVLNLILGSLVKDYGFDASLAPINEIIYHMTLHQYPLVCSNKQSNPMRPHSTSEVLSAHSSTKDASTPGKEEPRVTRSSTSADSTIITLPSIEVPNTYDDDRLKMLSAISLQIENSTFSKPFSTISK
# Experiment: PBM E-score (8-mer binding enrichment) (E-score (-0.5 to 0.5)); higher = stronger / more preferred TF binding; most listed sequences are background and not binding sites
# Conditions: protein concentration: 200 nM; construct: GST-full length
# How it was run: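 For each ungapped eight-base word taken together with its reverse complement, the Universal PBM Analysis Suite assigned an E-score. Binding data came from GST-tagged yeast transcription factors, applied at about 100-200 nM, on universal all-10-mer Agilent arrays made double-stranded by primer extension. Fluorescent anti-GST marked bound protein, and scans were normalised with masliner.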
row,Sequence,PBM E-score
1,CGGAGAGC,-0.107
2,ACGTGGCT,0.108
3,GGAAACAC,-0.0623
4,AGAGTTGC,-0.23
5,GCAAGGCA,-0.0178
6,TTGCTAAA,-0.207
7,GTCCGCCA,-0.00412
8,AATGCTTG,-0.18
9,GCAGATGC,-0.257
10,TCGTTGCA,0.0105
11,GGCCACAC,-0.15
12,CACAGGCG,0.00757
13,AAGCCAAT,0.0986
14,TAACAAAA,0.104
15,ACATTGTA,-0.0166
16,GCCGCAGA,-0.173
17,CATTTCAG,0.012
18,GCTCGCCA,-0.173
19,ACTGGTAA,0.0839
20,GCTCCCAA,-0.015
21,AGCAGTTG,-0.0829
22,AAACGTGA,0.177
23,CAACCTGC,-0.127
24,ACTACCGC,0.224
25,ACCGCGGC,-0.185

row,Sequence,PBM E-score
1,CCCTTCGG,-0.233
2,AAGGCTCG,-0.292
3,TGCCTCAA,-0.186
4,AGACTCCC,0.32
5,CACTCCAC,0.0622
6,AGACTCCT,0.337
7,CGCCGGCC,-0.279
8,ACGCTTCG,-0.111
9,ATCTAGGC,-0.26
10,TCACGAAA,0.087
11,CGCTTATA,-0.0592
12,ACTTTCTG,0.208
13,CGACGAAC,-0.14
14,CGTCTTTC,-0.108
15,AGATGCCC,-0.114
16,CTGTGTCA,-0.0661
17,AAGCAAAG,-0.218
18,GCAGTAGA,-0.132
19,CGCGATCA,0.0941
20,CCTATTAC,-0.2
21,AATCCAAC,-0.0272
22,ACGTTTCT,-0.246
23,GCGAATGA,0.159
24,CTCTCCAC,-0.0601
25,AGGTGGTA,-0.0819

row,Sequence,PBM E-score
1,ACGACCCT,-0.251
2,CACCTCTG,-0.0783
3,ATTTGGGC,-0.168
4,GCCGAGGC,-0.156
5,GGTTAAAC,0.211
6,CGTAGTTC,-0.226
7,CTTAAGGC,-0.16
8,ATCGCTTC,0.0447
9,GCAAACCA,-0.0683
10,CGAGCACG,-0.16
11,AGCGAGAT,-0.022
12,ACCCCGGT,-0.122
13,ATCCTAGG,-0.208
14,CCTACAGA,-0.167
15,AATGGGGT,0.0509
16,CTGGAGCC,-0.0587
17,CAGATCTC,0.0969
18,AGGCTCCC,-0.128
19,ATTTAGGC,-0.117
20,ACCAAAAA,0.186
21,AACCAAAC,-0.128
22,AGCACACC,-0.313
23,GAGTGAAA,0.0483
24,GACGTCTC,-0.196
25,ATCGTGCC,-0.0553

row,Sequence,PBM E-score
1,ATCTAGGG,0.0526
2,TCCAACCA,-0.132
3,CTGAGCAA,0.0639
4,CCTTGCAC,-0.156
5,ATTGCCAC,-0.0273
6,AGCGATTA,0.234
7,GAGCGTAC,-0.0764
8,GAACGTTC,-0.0614
9,AGCCGAAG,-0.203
10,CCGTGGCC,-0.352
11,ATCCATGA,0.216
12,CAGGACCA,-0.238
13,CTGAAAAG,-0.134
14,ATTATCCC,0.013
15,ATGCGCAA,-0.00074
16,ACCAGCTA,-0.127
17,ACTGCCCA,-0.0656
18,CGTGAAAG,-0.0317
19,CCATAGGG,-0.112
20,CTAAGTGC,-0.0386
21,CGTCATTC,-0.0565
22,TGCAAGCA,-0.205
23,GTCTGCGA,-0.036
24,AGATGATC,0.186
25,AGTCGTCG,0.375

row,Sequence,PBM E-score
1,CATGCCTC,0.0739
2,CATGCTCA,0.132
3,AGCCTTCG,0.0228
4,CTAGCGGC,-0.241
5,CAGGCAGA,-0.00699
6,GTAGCTAA,-0.173
7,AGAGGGTG,-0.0641
8,AGTAGGCC,-0.203
9,AACTGGTC,-0.131
10,GCCGCGTA,-0.109
11,CGAGGATA,-0.129
12,GAAGCGAC,-0.017
13,AAGCCTAT,-0.174
14,ATCGTGGA,-0.0223
15,GCCTCAAA,-0.224
16,AACCAAGG,-0.124
17,AAAGGCGT,-0.261
18,GCTAAACA,0.141
19,CTATGCCA,-0.0441
20,CTGCAGGC,-0.18
21,CAACCACG,0.137
22,GGTTATAA,-0.187
23,CCTTACCC,0.0208
24,CATACGAG,-0.114
25,AATACCCT,-0.16

row,Sequence,PBM E-score
1,CTTCTATA,0.0181
2,GCGCAGGA,-0.0398
3,AAAGCTTG,-0.187
4,GGGTTCTA,-0.193
5,AGTGAGGA,-0.0132
6,AAAAGCCC,-0.253
7,CCCGCACA,-0.175
8,AAGGTTGT,-0.113
9,TTAACTAA,0.138
10,GCAAAGTA,-0.0902
11,TCCCCACA,-0.134
12,AACCTGGG,-0.206
13,AAATTCTA,-0.214
14,CCGGTATA,0.072
15,ACGGATCA,0.14
16,AGTCAATA,0.383
17,GCTTTGCC,-0.279
18,AGCGGCGA,-0.0237
19,GCTTCCAA,-0.157
20,CCCACCCG,0.0275
21,AACTTCGT,-0.188
22,ATGTACTC,0.179
23,ACCCAATG,0.0243
24,ACGGCATC,-0.204
25,GTTTTTGA,0.187

row,Sequence,PBM E-score
1,GTTGTGCA,-0.143
2,AAGACGGT,-0.231
3,CCGGTGGC,-0.184
4,AGCCTCAA,-0.187
5,GCCTTCTA,-0.287
6,ACCTTATC,-0.0879
7,ACAGGCAG,0.157
8,ACACCTGA,0.0287
9,AAGGAATC,0.122
10,GTTAGCGA,0.0957
11,ATGCTTCC,-0.11
12,ATTACCCG,0.0405
13,CTCCGCTC,-0.245
14,ACACGGCA,-0.11
15,TCAGCTCA,0.144
16,CATCAATG,0.0157
17,CTGTTCAC,-0.105
18,CACTGACA,0.0352
19,AAAGTCTG,-0.0331
20,CTCCGGTA,-0.0507
21,GCAGGGGC,-0.231
22,GTCTGATA,-0.0653
